Not every detail of the peptide structures is certain; ends, links or a residue may be inferred.
Experiments:
human GIPR = biological target: T1, human GIPR (Homo sapiens, UniProt P48546); experiment: Agonist activity on human GIPR, CRE-luciferase reporter assay with increase in intracellular cAMP as indicator (hGIPR/CRE-LUC/CHO-K1 cell); format: cell-based; details: 4 hours incubation, 100% = 10 nM GIP, read-out: hGIPR (polyclonal) Reporter (EC50)
T1 construct: FLAG (N)
T1 sequence (P48546 22-466): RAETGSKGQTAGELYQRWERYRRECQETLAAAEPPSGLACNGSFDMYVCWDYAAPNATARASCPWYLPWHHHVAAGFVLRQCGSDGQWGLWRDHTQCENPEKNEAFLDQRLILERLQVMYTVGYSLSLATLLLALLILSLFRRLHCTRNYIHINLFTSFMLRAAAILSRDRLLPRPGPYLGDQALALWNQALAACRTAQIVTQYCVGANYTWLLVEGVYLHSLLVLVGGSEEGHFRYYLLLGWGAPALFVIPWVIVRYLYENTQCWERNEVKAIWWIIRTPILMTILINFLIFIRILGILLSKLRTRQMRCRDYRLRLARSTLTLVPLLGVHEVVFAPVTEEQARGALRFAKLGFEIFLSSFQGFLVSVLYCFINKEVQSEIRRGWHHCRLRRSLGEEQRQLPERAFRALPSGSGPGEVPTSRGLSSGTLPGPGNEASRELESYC
Excerpt: (§1) Evaluation of Agonist Activity on Human GIPR and Human GLP-1R with Increase in Intracellular cAMP Concentration as Indicator
(§2) A) Evaluation of Agonist Activity on Human GIPR and Human GLP-IR with Increase in Intracellular cAMP Concentration as Indicator
(1) Construction of Expression Plasmid of Human GIPR Gene. The Human GIPR Gene Having an Identical Sequence to Genebank Accession No. U39231 was Cloned into a pMSRα-Neo Vector to Prepare hGIPR/pMSRα-Neo.
(2) Construction of Reporter Plasmid Expressing Cell Luciferase Reporter Gene with a cAMP-Responsive Sequence Located Upstream was Transferred to a CHO-K1 Cell to Construct a CRE-LUC/CHO-K1 Cell.
(§3) (3) Construction of Reporter Plasmid
(§4) Four Copies of a cAMP responsive sequence and a Zeocin resistance gene were transferred to pGL3(R2.2)-Basic Vector (Promega) to construct a Cre-luc(Zeo) reporter plasmid.
(4) Transfer of Human GIPR Gene to CRE-LUC/CHO-K1 Cell and Obtaining of Expressing Cell the Plasmid hGIPR/pMSRα-Neo Obtained in (1) was Transferred to the CRELUC.
CHO-K1 cell obtained in (2) to obtain a transformant. Subsequently, the cell line inducing the luciferase expression, hGIPR/CRE-LUC/CHO-K1 cell, was selected from the obtained transformant by adding GIP.
(§5) 25 μL each of the hGIPR/CRE-LUC/CHO-K1 cell was inoculated in a 384-well white plate (Corning) in such a way as to provide 5×10^3 cells/well and cultured in a HamF12 medium containing 10% fetal bovine serum, 100 U/mL penicillin, and 100 μg/mL streptomycin in a CO2 incubator at 37° C. overnight. 5 μL of a medium containing a test compound was added to the cells and incubated for 4 hours at the indicated concentration in a CO2 incubator at 37° C. Steady-Glo (Promega) was added in amounts of 30 μL and shaken under light shielding. 20 Minutes later, luciferase activity was measured using a plate reader Envision (PerkinElmer). The GIPR agonist activity was calculated with increase in intracellular cAMP concentration as the indicator when the luciferase activity in the presence of 10 nM of GIP was 100% and the luciferase activity in the case of adding DMSO instead of the test compound was 0%.

human GLP-1R = biological target: T2, human GLP-1R (Homo sapiens, UniProt P43220); experiment: Agonist activity on human GLP-1R, CRE-luciferase reporter assay with increase in intracellular cAMP as indicator (hGLP-1R/CRE-luc/CHO-K1 cell); format: cell-based; details: 100% = 10 nM GLP-1, read-out: hGLP-1R (Reporter gene assay) (EC50)
T2 construct: FLAG (N)
Excerpt: as §1, §2, §3, §4
(5) Construction of Expression Plasmid of Human GLP-1R Gene
The human GLP-IR gene having an identical sequence to Genebank Accession No. NM_002062 was cloned into a pIRESneo3 vector to prepare hGLP-1/pIRESneo3.
(6) Transfer of Human GLP-1R Gene and Reporter Plasmid to CHO-K1 Cell and Obtaining of Expressing Cell
The Cre-luc (Zeo) obtained in (3) and the plasmid hGLP-1/pIRESneo3 obtained in (5) were transferred to the CHO-K1 cell to obtain a transformant. Subsequently, the cell line inducing the luciferase expression, hGLP-1R/CRE-luc/CHO-K1 cell, was selected from the obtained transformant by adding GLP-1.
as §5
The GLP-IR agonist activity was assayed in the same manner as above using the hGLP-1R/CRE-luc/CHO-K1 cell.

T2 sequence (P43220 24-463): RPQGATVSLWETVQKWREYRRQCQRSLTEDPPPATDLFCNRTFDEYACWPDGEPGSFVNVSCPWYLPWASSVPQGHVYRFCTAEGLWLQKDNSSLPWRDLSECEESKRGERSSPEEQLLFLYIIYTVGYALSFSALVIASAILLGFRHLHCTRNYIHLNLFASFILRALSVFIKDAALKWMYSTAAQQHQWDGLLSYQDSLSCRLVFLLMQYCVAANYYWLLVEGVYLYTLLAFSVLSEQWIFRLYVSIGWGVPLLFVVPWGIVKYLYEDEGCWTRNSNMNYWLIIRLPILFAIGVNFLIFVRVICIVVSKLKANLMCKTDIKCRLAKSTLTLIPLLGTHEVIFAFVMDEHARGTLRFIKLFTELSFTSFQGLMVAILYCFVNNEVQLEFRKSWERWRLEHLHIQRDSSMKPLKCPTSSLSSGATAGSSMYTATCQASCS

EC50 (human GIPR) [nM]	EC50 (human GLP-1R) [nM]	SMILES
0.02	> 1000	CC[C@H](C)[C@H](NC(=O)[C@H](CO)NC(=O)[C@H](Cc1ccc(O)cc1)NC(=O)[C@H](CC(=O)O)NC(=O)[C@H](CO)NC(=O)[C@@H](NC(=O)[C@](C)(CC)NC(=O)[C@@H](NC(=O)CNC(=O)[C@H](CCC(=O)O)NC(=O)C(C)(C)NC(=O)[C@H](Cc1ccc(O)cc1)NC)[C@@H](C)O)[C@@H](C)CC)C(=O)NC(C)(C)C(=O)N[C@@H](CC(C)C)C(=O)N[C@@H](CC(=O)O)C(=O)N[C@@H](CCCNC(=N)N)C(=O)NC(C)(C)C(=O)N[C@@H](C)C(=O)N[C@@H](CCC(N)=O)C(=O)NC(C)(C)C(=O)N[C@@H](CC(N)=O)C(=O)N[C@@H](Cc1ccccc1)C(=O)N[C@H](C(=O)N[C@@H](CC(N)=O)C(=O)N[C@@H](Cc1c[nH]c2ccccc12)C(=O)N[C@@](C)(CC)C(=O)N[C@@H](CC(C)C)C(=O)N[C@@H](C)C(=O)N[C@@H](CCC(N)=O)C(=O)N[C@@H](CCCNC(=N)N)C(=O)N1CCC[C@H]1C(=O)N[C@@H](CO)C(=O)N[C@@H](CO)C(=O)NCC(=O)N[C@@H](CCCCNC(=O)CNC(=O)CNC(=O)CNC(=O)CNC(=O)CNC(=O)CNC(=O)CCCCCCCCCCCCCCCCC(=O)O)C(=O)N1CCC[C@H]1C(=O)N1CCC[C@H]1C(=O)N1CCC[C@H]1C(=O)N[C@@H](CO)C(=O)N[C@@H](CCCNC(=N)N)C(N)=O)C(C)C [Compound 91]
0.02	> 1000	CC[C@H](C)[C@H](NC(=O)[C@H](CO)NC(=O)[C@H](Cc1ccc(O)cc1)NC(=O)[C@H](CC(=O)O)NC(=O)[C@H](CO)NC(=O)[C@@H](NC(=O)[C@](C)(CC)NC(=O)[C@@H](NC(=O)CNC(=O)[C@H](CCC(=O)O)NC(=O)C(C)(C)NC(=O)[C@H](Cc1ccc(O)cc1)NC)[C@@H](C)O)[C@@H](C)CC)C(=O)NC(C)(C)C(=O)N[C@@H](CC(C)C)C(=O)N[C@@H](CC(=O)O)C(=O)N[C@@H](CCCNC(=N)N)C(=O)NC(C)(C)C(=O)N[C@@H](C)C(=O)N[C@@H](CCC(N)=O)C(=O)NC(C)(C)C(=O)N[C@@H](CC(N)=O)C(=O)N[C@@H](Cc1ccccc1)C(=O)N[C@H](C(=O)N[C@@H](CC(N)=O)C(=O)N[C@@H](Cc1c[nH]c2ccccc12)C(=O)N[C@@](C)(CC)C(=O)N[C@@H](CC(C)C)C(=O)N[C@@H](C)C(=O)N[C@@H](CCC(N)=O)C(=O)N[C@@H](CCCNC(=N)N)C(=O)N1CCC[C@H]1C(=O)N[C@@H](CO)C(=O)N[C@@H](CO)C(=O)NCC(=O)N[C@@H](C)C(=O)N1CCC[C@H]1C(=O)N[C@@H](CCCCNC(=O)CNC(=O)CNC(=O)CNC(=O)CNC(=O)CNC(=O)CNC(=O)CCCCCCCCCCCCCCCCC(=O)O)C(=O)N1CCC[C@H]1C(=O)N[C@@H](CO)C(=O)N[C@@H](CCCNC(=N)N)C(N)=O)C(C)C [Compound 93]

Continued, compound first:

SMILES	EC50 (human GIPR) [nM]	EC50 (human GLP-1R) [nM]
CC[C@H](C)[C@H](NC(=O)[C@H](CO)NC(=O)[C@H](Cc1ccc(O)cc1)NC(=O)[C@H](CC(=O)O)NC(=O)[C@H](CO)NC(=O)[C@@H](NC(=O)[C@](C)(CC)NC(=O)[C@@H](NC(=O)CNC(=O)[C@H](CCC(=O)O)NC(=O)C(C)(C)NC(=O)[C@H](Cc1ccc(O)cc1)NC)[C@@H](C)O)[C@@H](C)CC)C(=O)NC(C)(C)C(=O)N[C@@H](CC(C)C)C(=O)N[C@@H](CC(=O)O)C(=O)N[C@@H](CCCNC(=N)N)C(=O)NC(C)(C)C(=O)N[C@@H](C)C(=O)N[C@@H](CCC(N)=O)C(=O)NC(C)(C)C(=O)N[C@@H](CC(N)=O)C(=O)N[C@@H](Cc1ccccc1)C(=O)N[C@H](C(=O)N[C@@H](CC(N)=O)C(=O)N[C@@H](Cc1c[nH]c2ccccc12)C(=O)N[C@@](C)(CC)C(=O)N[C@@H](CC(C)C)C(=O)N[C@@H](C)C(=O)N[C@@H](CCC(N)=O)C(=O)N[C@@H](CCCNC(=N)N)C(=O)N1CCC[C@H]1C(=O)N[C@@H](CO)C(=O)N[C@@H](CO)C(=O)NCC(=O)N[C@@H](C)C(=O)N[C@@H](CCCCNC(=O)CNC(=O)CNC(=O)CNC(=O)CNC(=O)CNC(=O)CNC(=O)CCCCCCCCCCCCCCCCCCC(=O)O)C(=O)N1CCC[C@H]1C(=O)N1CCC[C@H]1C(=O)N[C@@H](CO)C(=O)N[C@@H](CCCNC(=N)N)C(N)=O)C(C)C [Compound 83]	0.03	> 1000
CC[C@H](C)[C@H](NC(=O)[C@H](CO)NC(=O)[C@H](Cc1ccc(O)cc1)NC(=O)[C@H](CC(=O)O)NC(=O)[C@H](CO)NC(=O)[C@@H](NC(=O)[C@](C)(CC)NC(=O)[C@@H](NC(=O)CNC(=O)[C@H](CCC(=O)O)NC(=O)C(C)(C)NC(=O)[C@H](Cc1ccc(O)cc1)NC)[C@@H](C)O)[C@@H](C)CC)C(=O)NC(C)(C)C(=O)N[C@@H](CC(C)C)C(=O)N[C@@H](CC(=O)O)C(=O)N[C@@H](CCCNC(=N)N)C(=O)NC(C)(C)C(=O)N[C@@H](C)C(=O)N[C@@H](CCC(N)=O)C(=O)NC(C)(C)C(=O)N[C@@H](CC(N)=O)C(=O)N[C@@H](Cc1ccccc1)C(=O)N[C@H](C(=O)N[C@@H](CC(N)=O)C(=O)N[C@@H](Cc1c[nH]c2ccccc12)C(=O)N[C@@](C)(CC)C(=O)N[C@@H](CC(C)C)C(=O)N[C@@H](C)C(=O)N[C@@H](CCC(N)=O)C(=O)N[C@@H](CCCNC(=N)N)C(=O)N1CCC[C@H]1C(=O)N[C@@H](CO)C(=O)N[C@@H](CCCCNC(=O)CNC(=O)CNC(=O)CNC(=O)CNC(=O)CNC(=O)CNC(=O)CCCCCCCCCCCCCCCCCCC(=O)O)C(=O)NCC(=O)N[C@@H](C)C(=O)N1CCC[C@H]1C(=O)N1CCC[C@H]1C(=O)N1CCC[C@H]1C(=O)N[C@@H](CO)C(=O)N[C@@H](CCCNC(=N)N)C(N)=O)C(C)C [Compound 80]	0.027	> 1000
CC[C@H](C)[C@H](NC(=O)[C@H](CO)NC(=O)[C@H](Cc1ccc(O)cc1)NC(=O)[C@H](CC(=O)O)NC(=O)[C@H](CO)NC(=O)[C@@H](NC(=O)[C@](C)(CC)NC(=O)[C@@H](NC(=O)CNC(=O)[C@H](CCC(=O)O)NC(=O)C(C)(C)NC(=O)[C@H](Cc1ccc(O)cc1)NC)[C@@H](C)O)[C@@H](C)CC)C(=O)NC(C)(C)C(=O)N[C@@H](CC(C)C)C(=O)N[C@@H](CC(=O)O)C(=O)N[C@@H](CCCNC(=N)N)C(=O)NC(C)(C)C(=O)N[C@@H](C)C(=O)N[C@@H](CCC(N)=O)C(=O)NC(C)(C)C(=O)N[C@@H](CC(N)=O)C(=O)N[C@@H](Cc1ccccc1)C(=O)N[C@H](C(=O)N[C@@H](CC(N)=O)C(=O)N[C@@H](Cc1c[nH]c2ccccc12)C(=O)N[C@@](C)(CC)C(=O)N[C@@H](CC(C)C)C(=O)N[C@@H](C)C(=O)N[C@@H](CCC(N)=O)C(=O)N[C@@H](CCCNC(=N)N)C(=O)N1CCC[C@H]1C(=O)N[C@@H](CCCCNC(=O)CNC(=O)CNC(=O)CNC(=O)CNC(=O)CNC(=O)CNC(=O)CCCCCCCCCCCCCCCCCCC(=O)O)C(=O)N[C@@H](CO)C(=O)NCC(=O)N[C@@H](C)C(=O)N1CCC[C@H]1C(=O)N1CCC[C@H]1C(=O)N1CCC[C@H]1C(=O)N[C@@H](CO)C(=O)N[C@@H](CCCNC(=N)N)C(N)=O)C(C)C [Compound 79]	0.034	> 1000

— patent US12122815B2, “GIP receptor agonist peptide compounds and uses thereof” (TAKEDA PHARMACEUTICAL COMPANY LIMITED, priority 2018, dated 2024)
